# ± gives the standard deviation of the averaged measurements. Some of the results follow.
# Tested on: PfAP2-EXP AP2 domain (GST-tagged)
# Experiment: gcPBM binding intensity (ln(normalized median fluorescence intensity)); higher = stronger DNA binding
# Summary of the method: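 An Agilent 4 × 180k array carrying primer-extended double-stranded 36-bp intergenic genomic probes and negative controls received GST-tagged P. falciparum DNA-binding domains expressed in E. coli, about 25 μg on average, for 1 h. The binding buffer contained 1× PBS, 1% milk, 0.2 mg/ml BSA, 0.5% salmon testes DNA and 0.03% Triton X-100. Binding intensity is the top Masliner-normalised natural-log median intensity across replicate spots of either probe orientation, read after Alexa488 anti-GST antibody staining and a 488 nm scan.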
row,Sequence,gcPBM binding intensity (ln)
1,GTAGGATTTTCTTTTGTGCGCAATATAAAAAGAAAA [GTGCAC_site9514],8.76 ± 0.31
2,AAAAGGTATGTTATACATAGATATGCACATATATGT [TGCATGCA_negctrl_site96],8.7 ± 0.29
3,ATTAATATAAAAAGGTAAATGGATGTAATATATATA [XGTACX_negctrl_site2],8.85 ± 0.23
4,AAAATTGTTATTTTATGTACTTATATTTATTTATTT [XGTACX_site3478],8.53 ± 0.27
5,ATATATATAATATAATGTACATATATTTTATTTTTA [XGTACX_site3819],8.52 ± 0.014
6,TAATGTATTATATTTAGTACATATAAAAATAATTTT [XGTACX_site6886],8.11 ± 0.41
7,ACGTATTAGATAAATACACACACAAGCATATATTTT [CACACA_site9135],8.44 ± 0.35
8,AAAGCACCCAAGAATACACACAAATATTATAAAAAA [CACACA_site111],8.57 ± 0.58
9,TATATACATTTATGTACACACACATATATGTATATT [CACACA_site8971],8.59 ± 0.34
10,ATATATTAATTTAATTGTACGAATAAAAAAAAAAAA [XGTACX_site223],8.7 ± 0.64
11,ATAAATAAAAACACAAAACAAAACAAAACAAAACAA [CACACA_negctrl_site1257],8.41 ± 0.57
12,ATATATATTGTACTAGTGCATATATATACATATATT,8.52 ± 0.071
13,TTTCATCTATATGAAACACACAAAGGAAAAAAAATT [CACACA_site7869],8.88 ± 0.42
14,AGATTCAAAAATAAAACATGCAAAAATAAAACGTGC [TGCATGCA_site501],9.26 ± 0.36
15,TAATAAATGGCTAGTTGTACAGAAATATAAATATTA [XGTACX_site4579],8.51 ± 0.36
16,GCCTCATCGTAGCAGTGTACGTTTTTTTTTTTTTTT [XGTACX_site8648],8.91 ± 0.29
17,ACAATTTATATTATATGTACTTAAAAAGTTCGTAAA [XGTACX_site6421],8.21 ± 0.25
18,TTTTATACATAAATATGTACGTATATATAATGAATT [XGTACX_site1337],8.38 ± 0.37
19,TATAACATATGACACACACACATACATACACAAAAA [CACACA_site6935],8.87 ± 0.47
20,TATATATATTTATGTACACACACACCGATAAATAAA [CACACA_site4404],8.91 ± 0.48
21,TTCTAAAATTATATAGTGCAATTATATTAATTTTTC,8.39 ± 0.028
22,ATAACAACCCAATGTTGTACATTTAAATATAACGTA [XGTACX_site7114],8.48 ± 0.39
23,AAAAATAAAAAAAATACATGCAATGAAACATTTATT [TGCATGCA_site263],8.8 ± 0.13

row,Sequence,gcPBM binding intensity (ln)
1,TTACGCGCTTATTACACACACATACAAATAAGGATT [CACACA_site3486],8.69 ± 0.47
2,ATTTGTATTGTATATGCACACATAGAACACTTTTTT [CACACA_site9373],8.62 ± 0.29
3,AACAAAATAAAAAAAACATGCAAGAATTCTTATATG [TGCATGCA_site714],8.86 ± 0.38
4,TTGTGTTTGAAAAAATGTACATGTGTCTTACAACAA [XGTACX_site8371],8.61 ± 0.33
5,TTATACAGATATTTAACACACATTTTATAAAGTGCC [CACACA_site4851],8.28 ± 0.37
6,AAATATTTATATGTTACACACTGTTTATAACTTTCT [CACACA_site6752],8.63 ± 0.43
7,ACCCTATCTGTAACTACACACCGCATATTGTTTACT [CACACA_site5661],9.28 ± 0.4
8,ATAAATGACAGACACACACACAAAAAAAAAAAACAA [CACACA_site2626],8.84 ± 0.24
9,CTTCTGTAATTATCACGTACATATAATAATTAAAAT [XGTACX_site8973],8.65 ± 0.32
10,TTTTTATCTTTGCTGTGTACATAAATAAAAATAACT [XGTACX_site7625],8.81 ± 0.18
11,TTTTTTTTGATAAGTTGTACAATGATATATATCCCT [XGTACX_site3560],8.69 ± 0.48
12,ATAGTTTAATTTATATGTACATATAATATTGATTTG [XGTACX_site7520],8.64 ± 0.4
13,TATATTTTATATTGGTGTACAATTTTTTTTTTTTTT [XGTACX_site4291],8.3 ± 0.42
14,CCTTTTTTTTTTTTATGTACTAAAATAAAATTAGAA [XGTACX_site5956],8.38 ± 0.25
15,TACAACATATTCAAATGTACAAATATAGGAATGAAA [XGTACX_site2730],8.83 ± 0.55
16,AACATAAAATGGATATGTACATAAAAATATATACTC [XGTACX_site7775],8.66 ± 0.26
17,AGCGTATTATACTGACGTACATTTTATGTAACTCCA [XGTACX_site2715],8.27 ± 0.16
18,CGTTAGAGGGCTTTATCACACATGAAAAAAAAAAAA [CACACA_site5155],8.14 ± 0.33
19,TTATGTATTCATAACACATGCAAATAGGATCATATA [TGCATGCA_site731],8.99 ± 0.31
20,ATATGATTTCACAAGACACACACATACAAATTTATA [CACACA_site9296],8.72 ± 0.4
21,CACACGCACAGACACACACACACATATAAATATGTA [CACACA_site6300],8.73 ± 0.36
22,AAAAAAAAAAAAAACACACACAAATTTAATATATAT [CACACA_site1695],8.45 ± 0.55
23,TATATATATAACAACACACACAGATCATAAAACTGC [CACACA_site2161],9.07 ± 0.092

row,Sequence,gcPBM binding intensity (ln)
1,TCCCAAGGAGTAGGCACACATAAAATATTATACATA [CACACA_site717],8.38 ± 0.5
2,TATATTTATTTTAACACACACATATATATATTATAT [CACACA_site4729],8.62 ± 0.3
3,AAAAAAAAAAAAAAAACACACACAAATTTAATATAT [CACACA_site8492],8.59 ± 0.29
4,TACACCAAAAAAAAACGTACAAAATCCCACCCAGAC [XGTACX_site4622],9.51 ± 0.4
5,AAAATTAAAGTAAGGACACACATATATAATACATAT [CACACA_site823],8.84 ± 0.35
6,GTGTTCTTGTTATACACACACATATTTATATTTATA [CACACA_site6615],8.72 ± 0.26
7,TAGTATCAATCTTATACATGCATAAAATAATTATAA [TGCATGCA_site1052],8.78 ± 0.36
8,TTTATTTATATAATTACACACATATATACGCAAATG [CACACA_site2794],8.72 ± 0.47
9,TAAGCCAAGGGATAAATAAAATAACAAAATGAAATC [GTGCAC_negctrl_site601],8.84 ± 0.42
10,AAAGTATAGATGTATACACACACCAAACGTTAAAAA [CACACA_site3081],8.8 ± 0.67
11,TCATTAATTAAATCTTGTACATATTCATATATATAT [XGTACX_site2241],9.385 ± 0.007
12,TTTTATTCATTAATTTGTACTTATCCTTTTGCTTAA [XGTACX_site1243],8.69 ± 0.52
13,AAATATATTATAAATTGTACGTTTATATATATTATT [XGTACX_site5110],8.29 ± 0.37
14,TAAAGTTTTTTTTTAACACACACATAATAAAATAAA [CACACA_site8042],8.46 ± 0.51
15,TAAAAAAATAAAAAAAAAAAATTATAAAATTATATA [GTGCAC_negctrl_site302],7.96 ± 0.49
16,GACACATATAAATATTAACACACATAATGAATTATA [CACACA_site8881],8.47 ± 0.35
17,TAACTAAGGAATAATACACACAGAAATATATATTTA [CACACA_site344],8.68 ± 0.41
18,ACATTATGCCATAAATGTACACATACATATACACAG [XGTACX_site1330],8.73 ± 0.4
19,GATGATGTTACTTAAGTGCATATAAATTATATTTTA [GTGCAC_site9940],8.46 ± 0.23
20,TACTAACATAAAGACACACACCACATAAAATAAATA [CACACA_site7663],8.74 ± 0.42
21,ATAGTATACAGACACACACACACACCGATATATATA [CACACA_site8511],8.78 ± 0.6
22,GGAAGAAAACTTAGGTGTACATATAAAACGATATAA [XGTACX_site3118],8.87 ± 0.26
23,TATGAACACAGACACACACACAAAAAAAAAAAAAAA [CACACA_site7037],8.14 ± 0.66

row,Sequence,gcPBM binding intensity (ln)
1,CTTATTTTGTTATAAGTGCATTTTTTAAAATTTCTT,8.95 ± 0.28
2,TTTATGTGTATGTTTACACACATAAAAAAATATATG [CACACA_site3039],8.4 ± 0.34
3,TATACCTTTGCGTGTGCATGCGCTTATATATATTTT [TGCATGCA_site152],9.6 ± 0.47
4,ACAATTCCCGTATGATGTACTTTTTTCCACTTTTTC [XGTACX_site1811],8.97 ± 0.48
5,TATTTTTAATATTTTGCATGCAGTATTTTATAAAAT [TGCATGCA_site250],10.1 ± 0.2
6,TTTTTGTTATTATGTGTGCACATATATATATATATA,10.3 ± 0.4
7,TATGTTATTATTTGTACACACACATATATATCCTTG [CACACA_site5910],8.85 ± 0.3
8,AACAAATATCCCAAAAGTACACATATAAAAAAAAAA [XGTACX_site4126],8.59 ± 0.35
9,ATTATCTTATGTTATTTATTTGTCCCACATTTGTTA [TGCATGCA_negctrl_site402],8.86 ± 0.5
10,CATACACCCAGACACACACACATATATATATATATA [CACACA_site634],10.1 ± 0.44
11,TACCTAATATGTTATACACACATTAGAAGTACATAT [CACACA_site5375],8.41 ± 0.32
12,ATAAAAAAAAAAAAAAAATATATATATATATATATA [XGTACX_negctrl_site424],10.2 ± 0.32
13,TTTTAGGTCTGAATGTGTACTAAATAATATAAGTAT [XGTACX_site6554],8.43 ± 0.28
14,TATATACTTTTTAATCACACTTCTTTAAAAAAAGTA [CACACA_negctrl_site1380],8.22 ± 0.071
15,TTATTTTTATTATTTTGTATATATATTTATAGAAAA [XGTACX_negctrl_site465],8.52 ± 0.33
16,TGTAATAACGTTATAAAAAGTATAAAAAAAAAAAAA [CACACA_negctrl_site943],8.38 ± 0.56
17,ATCTATTTGTAAAGGGTGCGCATATCAATAAAAAAT [GTGCAC_site9503],9.55 ± 0.31
18,GTATATAATTTTTTATGTACTAAATTATATGTTTTT [XGTACX_site4907],8.34 ± 0.28
19,CACACAAAGGAATATACACACATATTTATATTTATA [CACACA_site7841],8.31 ± 0.55
20,AATAAATAAATAAATTAATAAATTAATAAATTAATA [GTGCAC_negctrl_site37],7.84 ± 0.16

# From the supplement of paper PMC11417369
